From PubChem BioAssay (NCATS)
“And” between values parts separate entries of the source, which are not always exact repeats. Equal values may be shown once. This list was built around the results that the source calls inconclusive (neither active nor inactive); the mix of calls is not that of the screen. Potencies beside an inconclusive call are fits to weak or partial responses and may not hold up. The source made the active and inactive calls. Calls follow the shape of the dose curve; as a rule, active = well fitted curve in the direction sought with a large enough effect; inconclusive = small, poorly fitted or top-dose-only effect, or another doubt; inactive = no such curve, though single readings can be large; an effect the other way counts as inactive or inconclusive.

Legend:
[1] = qHTS of pediatric cancer cell lines to identify multiple opportunities for drug repurposing: Primary screen for SK-N-MC cells (AID 1347093); settings: SK-N-MC viability, CellTiter-Glo luminescence, 48 h; activity change, negative = cytotoxic: at 46 µM (top of the series)
Method in brief: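 Metabolically active cells were quantified by ATP-dependent luminescence (CellTiter-Glo, 15 min at room temperature) following 48 h treatment. Cells had been plated at 500-1,000 per well and settled for 5 h beforehand.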

[2] = qHTS of pediatric cancer cell lines to identify multiple opportunities for drug repurposing: Primary screen for BT-37 cells (AID 1347094)
Method in brief: (§1)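 Primary screen of approved and investigational compounds on cells in growth media at 37 degrees C, 5% CO2. MIPE set at 11-point and NPC set at 8-point dilutions; viability scored by ATP-based luminescence at 48 hours.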

[3] = qHTS of pediatric cancer cell lines to identify multiple opportunities for drug repurposing: Primary screen for U-2 OS cells (AID 1347096); also: nearly all actives have a fitted effect of over 50% in size
Method in brief: (§2)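 Cells (500-1,000/well) rested 5 h, then received compounds for 48 h; metabolically active cells were measured by CellTiter-Glo luminescence. Final concentrations spanned up to 46 µM (MIPE, 11-point) or 0.59 nM-46 µM (NPC, 8-point) in primary screens, 11-point in follow-ups.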

[4] = qHTS of pediatric cancer cell lines to identify multiple opportunities for drug repurposing: Primary screen for Saos-2 cells (AID 1347097); settings: Saos-2 viability, CellTiter-Glo ATP luminescence, 48 h; activity change, negative = cytotoxic: at 46 µM (top of the series); also: nearly all actives have a fitted effect of over 40% in size
Method in brief: as §1

[5] = qHTS of pediatric cancer cell lines to identify multiple opportunities for drug repurposing: Primary screen for NB1643 cells (AID 1347099); also: nearly all actives have a fitted effect of over 50% in size
Method in brief: as §1

[6] = qHTS of pediatric cancer cell lines to identify multiple opportunities for drug repurposing: Primary screen for BT-12 cells (AID 1347101); also: nearly all actives have a fitted effect of over 25% in size
Method in brief: as §2

[7] = qHTS of pediatric cancer cell lines to identify multiple opportunities for drug repurposing: Primary screen for SK-N-SH cells (AID 1347098); also: nearly all actives have a fitted effect of over 65% in size;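 as to activity change, negative = cytotoxic: DMSO served as neutral control and bortezomib at 2.3 µM as positive control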
Method in brief: as §2

[8] = qHTS of pediatric cancer cell lines to identify multiple opportunities for drug repurposing: Primary screen for LAN-5 cells (AID 1347100); settings: LAN-5 neuroblastoma viability, CellTiter-Glo luminescence, 48 h; activity change, negative = cytotoxic: at 46 µM (top of the series)
Method in brief: as §2

[9] = qHTS of pediatric cancer cell lines to identify multiple opportunities for drug repurposing: Primary screen for NB-EBc1 cells (AID 1347095)
Method in brief: as §1
Potency is read from the fitted curve at half-maximal effect; tags tell the direction and shape of the fitted curve.

Row | Compound | Potency [1] | Potency [2] | Potency [3] | Potency [4] | Potency [5] | Potency [6] | Potency [7] | Potency [8] | Potency [9]
1 | O=C1Cc2cc(CCN3CCN(c4nsc5ccccc45)CC3)c(Cl)cc2N1 | inconclusive: 26.6 µM [cytotoxic, single point] | inconclusive: 38.9 µM [cytotoxic, single point] and inconclusive: 27.3 µM [cytotoxic, single point] | inconclusive: 23.5 µM [cytotoxic, single point] | inconclusive: 15 µM [cytotoxic, single point] and inconclusive: 37.2 µM [cytotoxic, single point] | inconclusive: 23.5 µM [cytotoxic, partial curve] | inconclusive: 24.3 µM [cytotoxic, partial curve, poor fit] |  |  | 
2 | c1ccc2occc2c1 | inconclusive: 0.0017 µM [cytotoxic, full curve] | inactive |  | inconclusive: 30.6 µM [cytotoxic, partial curve] | inactive |  | inconclusive: 88.6 µM [cytotoxic, single point] |  | 
3 | CC1=C[C@@H]2[C@@H]([C@@H](O)C[C@@]3(C)[C@H]2C[C@@H](C)[C@]3(O)C(=O)CO)[C@@]2(C)Cc3cnn(-c4ccccc4)c3C=C12 | inconclusive: 4.69 µM [cytotoxic, full curve, poor fit] | inconclusive: 24.3 µM [cytotoxic, partial curve] | inactive |  | inconclusive: 29.6 µM [cytotoxic, single point] | inconclusive: 24.3 µM [cytotoxic, partial curve] | inconclusive: 30.4 µM [cytotoxic, single point] | active: 23.5 µM | 
4 | NC(=O)Cc1cccc(C(=O)c2ccccc2)c1N | inconclusive: 37.2 µM [cytotoxic, partial curve, poor fit] | inactive |  |  |  |  |  |  | 
5 | COc1ccc(O)cc1 | inactive | inactive |  | inconclusive: 15 µM [cytotoxic, partial curve] |  |  |  |  | 
6 | Cc1ccc(N)cc1O | inconclusive: 48.6 µM [cytotoxic, single point] | inconclusive: 56.3 µM [cytotoxic, single point] | inconclusive: 48.6 µM [cytotoxic, single point] | inconclusive: 30.6 µM [cytotoxic, single point] |  | inconclusive: 39.9 µM [cytotoxic, single point] | active: 31.4 µM | inconclusive: 48.6 µM [cytotoxic, single point] | inconclusive: 68.6 µM [cytotoxic, single point]
7 | CCOC(=O)N1CCC(n2c(=O)[nH]c3cc(Cl)ccc32)CC1 | inconclusive: 33.5 µM [cytotoxic, single point] | inconclusive: 43.7 µM [cytotoxic, partial curve, poor fit] | inconclusive: 13.3 µM [cytotoxic, partial curve, poor fit] |  |  | inconclusive: 24.6 µM [cytotoxic, partial curve] | inactive |  | inconclusive: 18.8 µM [cytotoxic, single point]
8 | O=C(Nc1cc2cc[nH]c2cn1)c1ccccc1 | active: 11.8 µM | active: 7.69 µM | inconclusive: 14.8 µM [cytotoxic, partial curve] |  |  | active: 6.85 µM | active: 19.2 µM |  | active: 13.2 µM
9 | CCN(CC)CCCC(C)Nc1c2ccc(Cl)cc2nc2ccc(OC)cc12 (configuration not stated) | inconclusive: 29.9 µM [cytotoxic, single point] | active: 27.6 µM |  | inconclusive: 26.6 µM [cytotoxic, single point] | inconclusive: 23.7 µM [cytotoxic, partial curve] | inconclusive: 27.6 µM [cytotoxic, single point] | active: 5.45 µM | inconclusive: 23.7 µM [cytotoxic, single point] | 
10 | COC(=O)C1=C(C)NC(C)=C(C(=O)OCC(C)C)C1c1ccccc1[N+](=O)[O-] (configuration not stated) | inconclusive: 33.5 µM [cytotoxic, single point] | inconclusive: 30.9 µM [cytotoxic, single point] | inconclusive: 21.1 µM [cytotoxic, partial curve, poor fit] | inactive | inconclusive: 18.8 µM [cytotoxic, single point] | inconclusive: 21.9 µM [cytotoxic, single point] | inconclusive: 13.7 µM [cytotoxic, partial curve] |  | 
